Screen size: about 39,000 compounds; about 220 (0.56%) showed activity. The list shows a part of the results.
What follows are molecules tested on Escherichia coli K-12 BW25113 (assay: relative growth (OD600 normalised to plate interquartile mean) (fraction); higher = less growth inhibition, active = 0.2 or less). Conditions: 50 µM; LB; incubation time: overnight (16-24 h).
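Note: static incubation at 37 °C against the wild-type strain, values averaged over two biological replicates.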

Row | SMILES | relative growth
1 | C[C@H](CO)N1C[C@H](C)[C@H](CN(C)C(=O)Nc2ccc(C(C)(C)C)cc2)OCc2cn(nn2)CCCC1=O | inactive: 1.01
2 | C[C@@H]1CN([C@H](C)CO)C(=O)Cc2cc(NC(=O)Cn3cnnn3)ccc2O[C@@H]1CN(C)C(=O)Nc1ccccc1 | inactive: 0.962
3 | C[C@H](CO)N1C[C@H](C)[C@H](CN(C)C(=O)CN(C)C)Oc2cc(C#C[C@@H](C)O)ccc2S1(=O)=O | inactive: 1.02
4 | C[C@@H]1CN([C@H](C)CO)C(=O)c2cc(NC(=O)c3ccccc3)ccc2O[C@@H](C)CCCCO[C@@H]1CN(C)C(=O)CCC(F)(F)F | inactive: 0.978
5 | O=C(C[C@@H]1CC[C@@H]2[C@H](COC[C@@H](O)CN2C(=O)Nc2ccc3c(c2)OCO3)O1)N1CCN(c2ccccc2)CC1 | inactive: 0.988
6 | C[C@H](CO)N1C[C@H](C)[C@H](CN(C)CC2CC2)OCCCC[C@H](C)Oc2ccc(NC(=O)Nc3ccc(F)cc3)cc2C1=O | inactive: 0.983
7 | CC(C)c1ccc2c(c1)C(=O)[C@H](N)CCO2 | inactive: 0.971
8 | C[C@H]1CN([C@@H](C)CO)C(=O)c2cc(NC(=O)C3CC3)ccc2O[C@@H]1CN(C)S(=O)(=O)c1ccccc1 | inactive: 0.993
9 | COc1ccc(NC(=O)N(C)C[C@@H]2Oc3ccc(NC(=O)Nc4ccc(C(F)(F)F)cc4)cc3CC(=O)N([C@H](C)CO)C[C@@H]2C)cc1 | inactive: 1.02
10 | CC(C)NC(=O)N(C)C[C@@H]1OCCCC[C@@H](C)Oc2ccc(NC(=O)CCCCCC(=O)Nc3ccccc3N)cc2C(=O)N([C@H](C)CO)C[C@H]1C | inactive: 0.997
11 | Cc1ccc(S(=O)(=O)Nc2ccc3c(c2)C(=O)N([C@H](C)CO)C[C@H](C)[C@H](CN(C)C(=O)Nc2ccc(C(F)(F)F)cc2)OCCCC[C@H](C)O3)cc1 | inactive: 1.03
12 | C=CC[C@H](CC(=O)NCCO)C(=O)N[C@H](COC(=O)[C@@H](CC=C)CC(=O)OC(C)(C)C)c1ccccc1 | inactive: 1.01
13 | CN1C(=O)c2cc(NC(=O)c3cscn3)ccc2OC[C@@H]2O[C@H](CC(=O)N3CCOCC3)CC[C@H]21 | inactive: 1.01
14 | C[C@@H]1CN([C@H](C)CO)C(=O)c2cc(C#CCc3ccccc3)cnc2O[C@H]1CN(C)CC1CCOCC1 | inactive: 1.02
15 | COCC(=O)Nc1ccc2c(c1)C(=O)N(C)C[C@@H](OC)[C@@H](C)CN(C(=O)Cc1ccccn1)[C@@H](C)CO2 | inactive: 0.989
16 | CCCNC(=O)N1C[C@H](O)COC[C@@H]2O[C@@H](CC(=O)NCCCN3CCOCC3)CC[C@H]21 | inactive: 1.02
17 | C[C@H](CO)N1C[C@H](C)[C@@H](CN(C)C(=O)Nc2ccc(C(F)(F)F)cc2)OCCCC[C@H](C)Oc2ccc(NC(=O)CCC(F)(F)F)cc2C1=O | inactive: 1.02
18 | C[C@@H]1CN([C@@H](C)CO)C(=O)c2cc(NC(=O)Nc3ccccc3)ccc2O[C@@H](C)CCCCO[C@H]1CN(C)C(=O)OC(C)(C)C | inactive: 0.998
19 | C[C@H]1CN([C@@H](C)CO)C(=O)c2cc(NS(C)(=O)=O)ccc2O[C@H]1CN(C)C(=O)Nc1ccc(C(F)(F)F)cc1 | inactive: 1.01

Row | SMILES | relative growth
20 | C[C@@H]1CN([C@@H](C)CO)C(=O)Cc2cc(NC(=O)CCN3CCOCC3)ccc2O[C@H]1CN(C)S(=O)(=O)c1ccc(F)cc1 | inactive: 1.01
21 | CCn1nc(C)cc1C(=O)NN | inactive: 1.02
22 | COc1ccc(S(=O)(=O)Nc2ccc3c(c2)C(=O)N([C@H](C)CO)C[C@H](C)[C@H](CN(C)C(=O)Nc2cccc4ccccc24)O3)cc1 | inactive: 1.03
23 | C=CCN1C(=O)[C@]2(O[C@H](CCn3cc(CCO)nn3)[C@@H]([Si](C)(C)c3ccc(OC)cc3)[C@@H]2C)c2cc(N3CCC3=O)ccc21 | inactive: 1.02
24 | CCCN1C[C@@H](C)[C@H](OC)CN(C)C(=O)c2cc(NS(=O)(=O)c3cn(C)cn3)ccc2OC[C@@H]1C | inactive: 0.953
25 | Nc1nc(Cl)nc2c1ncn2[C@H]1C[C@@H](O)[C@@H](COP(=O)(O)OP(=O)(O)OP(=O)(O)O)O1 | inactive: 1.01
26 | C[N+](C)(C)CCCCNC(=O)[C@H]1C[C@H]2C(=O)N[C@@H](CCCC[N+](C)(C)C)C(=O)N2[C@H]1c1cccc(OCCO)c1 | inactive: 1.03
27 | Cc1cc(Nc2cc(C)on2)nc([C@H]2CCN(C(=O)CN)C2)n1 | inactive: 0.914
28 | C[C@H](CO)N1C[C@H](C)[C@@H](CN(C)Cc2ccc(C(F)(F)F)cc2)OCCCC[C@H](C)Oc2ccc(NC(=O)Nc3ccccc3)cc2C1=O | inactive: 0.992
29 | COc1cccc(NC(=O)N2C[C@H](O)COC[C@@H]3O[C@H](CC(=O)NCCCN4CCOCC4)CC[C@H]32)c1 | inactive: 1.02
30 | COc1ccc(NC(=O)N(C)C[C@H]2OCCCC[C@@H](C)Oc3ccc(NC(=O)c4ccccc4)cc3C(=O)N([C@H](C)CO)C[C@@H]2C)cc1 | inactive: 0.939
31 | C[C@@H]1CN([C@H](C)CO)C(=O)c2cc(NC(=O)CCCCCC(=O)Nc3ccccc3N)ccc2O[C@@H](C)CCCCO[C@@H]1CN(C)S(=O)(=O)c1ccc(Cl)cc1 | inactive: 1.03
32 | Cc1cc(N)[nH]n1 | inactive: 1.03
33 | Cc1cc(C(=O)Nc2cccc3c2O[C@H](CN(C)C(=O)Nc2ccccc2)[C@@H](C)CN([C@H](C)CO)C3=O)n(C)n1 | inactive: 1.01
34 | Cc1noc(C)c1S(=O)(=O)Nc1ccc2c(c1)C(=O)N([C@@H](C)CO)C[C@H](C)[C@@H](CN(C)Cc1ccc(C(F)(F)F)cc1)OCCCC[C@@H](C)O2 | inactive: 0.963
35 | C[C@H]1CN([C@@H](C)CO)C(=O)c2cc(NS(=O)(=O)c3cccs3)ccc2O[C@H]1CN(C)C(=O)Nc1cccc2ccccc12 | inactive: 0.917
36 | O=C(C[C@H]1C[C@H]2c3cc(NC(=O)NC4CCCC4)ccc3O[C@H]2[C@@H](CO)O1)NCc1ccc(-c2ccccc2)cc1 | inactive: 0.984
37 | C[C@@H]1CN([C@H](C)CO)C(=O)c2cc(NS(C)(=O)=O)ccc2O[C@@H]1CN(C)Cc1ccc2c(c1)OCO2 | inactive: 1.01
